Data from the supplement of paper PMC3334620.
Whole data set: some 33,000 sequences, median “E-score (-0.5 to 0.5)” near -0.054, cut for the highest 2% near 0.39. Some of the results follow.

molecular target: Ylr278c (UniProt Q05854); experiment: PBM E-score (8-mer binding enrichment) (E-score (-0.5 to 0.5)); higher = stronger / more preferred TF binding; most listed sequences are background and not binding sites; conditions: protein concentration: 200 nM; construct: GST-DNA-binding domain
Description: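 Universal 'all 10-mer' protein binding microarrays (Agilent AMADID 015681) probed with GST-tagged S. cerevisiae TFs (full-length or DBD) made by in vitro transcription/translation (PURExpress), about 100-200 nM. Bound TF was detected with fluorescent anti-GST. Each ungapped 8-mer (which stands for itself and its reverse complement) is scored by the PBM enrichment score (E-score), a modified Wilcoxon-Mann-Whitney statistic from -0.5 to +0.5, computed with the Universal PBM Analysis Suite. Scale: above 0.35 generally sequence-specific binding.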

Sequence	PBM E-score
ACGGGAAC	0.0817
GAAGTGTC	0.0815
ACTGAGTG	-0.0329
AGGTTTCA	-0.0489
ACTAAGCA	-0.251
CCTGCTGC	-0.0437
ATCAGAGA	-0.213
CATTCTAA	-0.0683
AATCACTC	-0.206
ACGCACCA	-0.158
TACTATCA	-0.00451
ACCCGCGT	-0.0308
CATATACC	0.00786
GTTTCGCA	-0.0936
GGGGCAGA	-0.101
ACTCTGTC	-0.228
GCCACGAA	-0.214
ATACTTTC	0.00946
CTTGATAA	-0.0321
GTCAGCAC	-0.0241
CGCTCGCA	0.136
AAAACAGA	-0.131
ACCCCCAT	-0.294
ATATGTCC	0.198

Sequence	PBM E-score
CTTCCTAA	-0.0723
CCGCACTA	0.293
CCGAACCC	0.269
CGTGGGAG	0.0745
TAATCCAA	-0.121
CCCCAAAC	-0.135
CCCTCTCA	-0.296
ACTCGAAG	-0.1
CCCGAGTA	0.241
ACCGAGAG	0.0585
AACGGACC	0.251
CCGAAGAG	0.228
GGGCGTGA	0.0298
GCCGCTTA	0.173
TATACAAA	-0.0234
GTCGACAA	-0.0883
CCAATGAG	-0.219
AGCTGTCG	-0.102
ACAAGTTC	-0.057
AATTACGC	-0.19
CTGACGGC	0.128
ATCACAGA	-0.149
AGGCAAAA	0.0496
AGCCAGAT	-0.0935

Sequence	PBM E-score
GGAACTAA	0.294
ACAGTATG	-0.159
AGTCCACA	-0.116
CACTTCCA	-0.112
AGCGCCTC	0.0381
CGGGTTCA	0.156
CATATAAC	-0.0367
ACCCCACT	0.0507
AAATGTAT	0.0681
GGTCTTCA	-0.0994
CAAGCCGA	0.118
AACATTAT	-0.0876
CAGATGTA	-0.0526
AAGCACAG	-0.03
AAAGCAAC	-0.195
AACAGTCG	0.048
GGGGATAA	0.166
CCCTTCGC	-0.131
ACTCCGGG	0.481
TCTAGCCA	-0.184
GCCAAGTA	-0.286
CGCTACTA	0.185
ACATTGCG	0.0315
AACACCCA	-0.127

Sequence	PBM E-score
GCGCTGTA	-0.0297
GCACGAAA	-0.0804
ATTCGTGA	-0.241
GAGTGCCA	-0.179
ATAGAGAT	-0.177
GCAGCCGA	0.156
ATCATATC	0.0267
GACAATGA	-0.0237
ATCAACGA	0.0531
CAGGACAC	-0.0853
TATAATCA	0.00794
AACAACCG	0.14
AAATATAT	0.0878
TGCTGACA	-0.236
CGCAAAAA	0.0607
CAAGAATC	0.0987
AGGCTTCC	0.0193
CCCGTGAA	0.0652
GAATCGCC	0.122
TTGGTAAA	-0.0756
CGGATGTA	0.307
AGGAGGCA	0.0142
